Assay results from paper PMC12136788.
The list shows a part of the results.

T1: UNK ZnF1-3 (human, UniProt Q9C0B0 31-174)
T1 sequence: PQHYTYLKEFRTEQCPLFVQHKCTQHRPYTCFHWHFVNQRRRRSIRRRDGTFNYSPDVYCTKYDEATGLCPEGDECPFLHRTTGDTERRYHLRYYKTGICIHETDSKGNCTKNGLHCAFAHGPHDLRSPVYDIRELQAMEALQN

B1: chr5:56177553:56177554:+_ENSG00000095015_ENST00000399503|hu_mus|FALSE|FALSE (ssRNA)
RNA: GGGAGUUCUACAGUCCGACGAUCAUCCGCGAUAGCCAUCAGACGCCGGCGCAUCCUGGUGAAGUGGGUGGAGCCAGAAGCAUUAAGCAUGGUUACCAGCUUGGAAAACACAGCGGGCACUGCGGUCACCAUCCUGGCAGAGCUCAACAGAGGAUUGAGCAUCA
B2: chr4:128995729:128995730:-_ENSMUSG00000057236_ENSMUST00000102598|mus_hu|FALSE|FALSE (ssRNA)
RNA: GGGAGUUCUACAGUCCGACGAUCCUCUCCAAUUUUACUUAAAUCCCAGACAUUCAGUCUGCGAUCAGUACCACUGGAAGCUAAAAUAGUCUCAUUGUGAGGUGACCACUGAACCUGGAAUAUUUCAUCCUUAUGUGACUCAAACAACAGAGGAUUGAGCAUCA
B3: chr17:37009338:37009339:-_ENSG00000125691_ENST00000394332|hu_mus|FALSE|FALSE (ssRNA)
RNA: GGGAGUUCUACAGUCCGACGAUCUCUGCACAGUUGAUCACAGCUCCGACCGGAAGACCCAGGGAAAUCCGGAAUUUCGCCCCGGAGGACCCACCGCGUCCUCGCUUCGACAUCUUGAACGCCCGGAAAGGGUCAGAAAGGAAGCAACAGAGGAUUGAGCAUCA
B4: chr7:56126341:56126342:+_ENSG00000146731_ENST00000540286|hu_mus|hu_hu_hu_mus_True|1_68 (ssRNA)
RNA: GGGAGUUCUACAGUCCGACGAUCCAUGUUUCUCCUCUUGGCUCUGCGCAGAGCUACGAUCCCUUCUUUUGAAAGAGCAUCUAAGGAAAAGGGGUCAAUCCCCUUUUGAUUAAUAACGACAAAUCCUUUAUCUGAGUCGCCACACAACAGAGGAUUGAGCAUCA
B5: 57309863_57312345_2297_CDS_ENSMUSG00000079184_ENSMUST00000116468|mouse|control|control (ssRNA)
RNA: GGGAGUUCUACAGUCCGACGAUCGCAUGCUAUUGGGAAAACAGGUUCCAGUAGAGCAAGGCGAGAUUCAAAGUAAUCCCUGAUUGUUUCUUCUGCAACUCUGGAAAGUGUCUCCAAGUGGCUCUUCAGCAGUUCAUAUACAAGCAACAGAGGAUUGAGCAUCA
B6: chr19:8913615:8913616:-_ENSMUSG00000071658_ENSMUST00000096259|mus_hu|mus_mus_mus_hu_False|18_38 (ssRNA)
RNA: GGGAGUUCUACAGUCCGACGAUCAGGGUACCAAAACCUUCUGCCUGAAAUGGGUGCCCCACCCAGUAGGGAGUUGCAGCUGAAAGUAUCUGAUGCACUGACAGUUACUAUACGAAAGGUCACUAGAGGGGAGGGCCAGGCCAGCAACAGAGGAUUGAGCAUCA
B7: chr1:36068893:36068894:-_ENSG00000126067_ENST00000373237|hu_mus|FALSE|FALSE (ssRNA)
RNA: GGGAGUUCUACAGUCCGACGAUCCCCUGGUGAGUGGGAGGGAAGGACGUGACGUUAGGAGUCCCGCUUAGGGAAGGCAAUGUUCUCCAGAUUGUGGAUGCCAUCUUUGUCAAUGACCCGGACACUGAAGGUGGGCAGAUUCAACAACAGAGGAUUGAGCAUCA
B8: chr3:14508043:14508044:+_ENSG00000131389_ENST00000360861|hu_hu|FALSE|FALSE (ssRNA)
RNA: GGGAGUUCUACAGUCCGACGAUCCGCGCCCGGCAGCGUCAGCCCUCGGACCAGCAGCACCAGGAGCAUGGCGAAUGGAAAAGUGGCUGUGAAGUAGACGACCUUCCCAGUGGACCUGACGCCCUUCCAGAUGCAGAAGAAACACAACAGAGGAUUGAGCAUCA
B9: chr14:55515796:55515797:+_ENSMUSG00000022194_ENSMUST00000116476|mus_hu|motif|central (ssRNA)
RNA: GGGAGUUCUACAGUCCGACGAUCAAAUAGGGACUCAUCUAAGGCCAAGGAAGUCCUCACUGACUCUUUGUCUGAGAACUCGGUAUACGCAAACCCUUUGGGAUGGCCACUAAAUUUGUCACACAGUAUGGUAACACGGUUGACCAACAGAGGAUUGAGCAUCA
B10: chr5:37680062:37680063:+_ENSMUSG00000029121_ENSMUST00000031004|mus_hu|mus_mus_mus_hu_False|28_88 (ssRNA)
RNA: GGGAGUUCUACAGUCCGACGAUCUUUGGGUGUAGCUGGUACCUCGUACACAGGCCCGUCAUACAUGCCCCUGGAAACCCCUUGCAAUCCAAAAACCUUAUUCCUGAUCCUGACACGCUGGUACAGGUGCUCCGGGAACGCCUUCAACAGAGGAUUGAGCAUCA
B11: chr3:148802587:148802588:-_ENSG00000071794_ENST00000310053|hu_mus|hu_hu_hu_mus_False|8_18 (ssRNA)
RNA: GGGAGUUCUACAGUCCGACGAUCUCCAACAACUUGUCCUCUCAUAGUUCCAAAUAAAACCAAAUCUUGCUCUUCAUCACUCGUUAGGAAGUCAUCUGGAGGAAUAAUGUCUUGGAAUUCAAAACGUGGAAAGAAAGUUGAGUACAACAGAGGAUUGAGCAUCA
B12: chr2:153237265:153237266:-_ENSMUSG00000061411_ENSMUST00000109784|mus_mus|mus_mus_mus_hu_False|8_98 (ssRNA)
RNA: GGGAGUUCUACAGUCCGACGAUCAAAAAAAAAAAAAGAAAAGUGUCCUUGUGCCCAAAGUCUCAGGUGCUUGGAGUGUGGCUAGAAACAGCUCUUUUGGAUCCCACCUCUUUCAAAAACAAAAUGUCCAACUGGUGGAGGCAGCAACAGAGGAUUGAGCAUCA
B13: chr19:16212804:16212805:+_ENSG00000167460_ENST00000300933|hu_mus|hu_hu_hu_mus_False|38_48 (ssRNA)
RNA: GGGAGUUCUACAGUCCGACGAUCAACAAUUCUGGAGUGAAGGAAAGAUGUAACAUGGAACAGCAUUAAAGCUCAGUCAGAAGGCACGUGGGUAAUUAUGACUAUUUCAGCAUUCUCGCUUGGAAUGCUUAAAGACAAUCUGUUCAACAGAGGAUUGAGCAUCA
B14: chr6:40197388:40197389:+_ENSMUSG00000057716_ENSMUST00000061740|mus_mus|mus_mus_mus_hu_False|38_88 (ssRNA)
RNA: GGGAGUUCUACAGUCCGACGAUCGAGACACUGGGGUGGAUUUAUUCUCAGUUUGGGUGGGUGCUAGCCACUAAGACUGUUAUUUUGGGAUUCAUGGCCUUGAAGAUCAAGAGGGAAAGGAAGAGGAUGGAAAGAGUCAAGAGUCAACAGAGGAUUGAGCAUCA
B15: chr10:62544473:62544474:+_ENSG00000170312_ENST00000395284|hu_hu|FALSE|FALSE (ssRNA)
RNA: GGGAGUUCUACAGUCCGACGAUCUGUAGUUUUGUGUCUACCCUUAUACACAACUCCAUAGGUACCUUCUCCAAUUUUCUCUAUUUUGGUAUAAUCUUCCAUAGUUAGUCAAUGGGUAUGGUAGAUCCCGGCUUAUUAUUCCGCCAACAGAGGAUUGAGCAUCA
B16: chr16:22092171:22092172:+_ENSG00000185716_ENST00000542527|hu_mus|motif|central (ssRNA)
RNA: GGGAGUUCUACAGUCCGACGAUCCCGUUUAGACAUUCGUCAGCCUGGUAAACAGACUUUGCCAGCAAACAGAAGUCCGGCGGUUGUGAAGAAAAUCGAUAAGACAAAAAGUACAUAUGAUGACCCAACUACUGUGUUGUUGGGCAACAGAGGAUUGAGCAUCA
B17: chr11:87793471:87793472:-_ENSMUSG00000020483_ENSMUST00000020775|mus_mus|mus_mus_mus_hu_False|88_88 (ssRNA)
RNA: GGGAGUUCUACAGUCCGACGAUCUGGACUUGAAAAUAAAAGAAUAAGCUAGAUUUCCCACCCCCCCACAUUGUCAACCCUACACGAGAGUUUUGAAGGCGACUCAUGAAAAUCAGCAGCUCAAACGGCAAUGACCACCCCACCCAACAGAGGAUUGAGCAUCA
B18: chr17:45760540:45760541:+_ENSG00000108424_ENST00000290158|hu_mus|motif|central (ssRNA)
RNA: GGGAGUUCUACAGUCCGACGAUCGCGCUGACCAUUCGUCAGUGUUUUCCCUAGAGUAAUUAAAAUGAAACCAAACCAAACCGGAACAGCGUCUUUCCUCAUUUAAAAAAAAAACACGUCUCUUGUGCUGCAUCAGUAGCCAGACAACAGAGGAUUGAGCAUCA
B19: chr3:57569730:57569731:-_ENSG00000168374_ENST00000303436|hu_hu|FALSE|FALSE (ssRNA)
RNA: GGGAGUUCUACAGUCCGACGAUCAUAUUCUACUGUUUCCACAUUAAAACCAAUGGUAGGAAUGGUGGUGACUAUCUCCCCUAACUUCAGUUUAUACAGAAUGGUUGUCUUGCCAGCAGCAUCCAAUCCAACCAUCAAAAUGCGCAACAGAGGAUUGAGCAUCA
B20: chr10:62048396:62048397:-_ENSMUSG00000020075_ENSMUST00000045866|mus_mus|motif|central (ssRNA)
RNA: GGGAGUUCUACAGUCCGACGAUCGGCCUCUACAGCUCCCUUCUCCUCAAUCAGCUUCUCAGCUGACUGCUUGAAAUGGCGGAUGGCAGUGGGAGGCACAGAAUCCAAGAGCCUGAUGGCGUCUUUGCUGGAGGCUUUUAUUAUCAACAGAGGAUUGAGCAUCA
B21: chr6:42636609:42636610:-_ENSMUSG00000036667_ENSMUST00000045054|mus_mus|FALSE|FALSE (ssRNA)
RNA: GGGAGUUCUACAGUCCGACGAUCGGCAUCAAUGCAGUAAACCCCCAGGGAGUCAUUGACUUCUGGCUCAAUCUUUGACUCUAUUCCACAGCUCUCGAGAAUUUUCACCAAUGGUGCUAAAGAUGAGUGCACACCAAUGGCUGACAACAGAGGAUUGAGCAUCA
B22: chr14:76904430:76904431:+_ENSMUSG00000022010_ENSMUST00000022587|mus_mus|mus_mus_mus_hu_True|1_98 (ssRNA)
RNA: GGGAGUUCUACAGUCCGACGAUCUGCAGCCAAAAACAGAGAGAGGGAAAAAAAGAGGGAACACCAGCAGCCUUGUAUAAGCUAGAUAAAAUCUUCUGGCUUUCCGCAGCCCAGGGAGAAACAGAAAACGGCAGCCCUCGAGUGCAACAGAGGAUUGAGCAUCA

target: T1, UNK ZnF1-3; test: nsRBNS (natural sequence RNA bind-n-seq); RBNS binding buffer (assumed for nsRBNS): 25 mM Tris pH 7.5, 150 mM KCl, 3 mM MgCl2, 0.01% Triton X-100, 500 ug/ml BSA, 20 U/ml SUPERase-In, 4 C; UNK is unkempt and MSI1 is Musashi-1; names of the RNAs are library labels; protein concentration not given here; high values mean tight binding

Binder	binding signal
B1	1.22 enrichment R
B2	0.777 enrichment R
B3	1.34 enrichment R
B4	1.49 enrichment R
B5	0.887 enrichment R
B6	1.37 enrichment R
B7	1.3 enrichment R
B8	1.2 enrichment R
B9	1.05 enrichment R
B10	0.862 enrichment R
B11	1.29 enrichment R
B12	1.77 enrichment R
B13	1.19 enrichment R
B14	1.86 enrichment R
B15	0.419 enrichment R
B16	0.943 enrichment R
B17	1.99 enrichment R
B18	1.24 enrichment R
B19	0.856 enrichment R
B20	0.648 enrichment R
B21	1.01 enrichment R
B22	2.51 enrichment R
